The antibiotic and cytotoxicity screens of Wong et al. (2023)
This is one part of the list.

How the values were obtained:
HSkMC = human skeletal muscle cells; experiment: cytotoxicity call (relative viability < 0.9); details: 10 µM
HepG2 = experiment: cytotoxicity call (relative viability < 0.9); details: 10 µM
S. aureus RN4220 = experiment: growth inhibition call (relative growth <= 0.2); details: 50 µM

SMILES	cytotoxicity call (HSkMC)	cytotoxicity call (HepG2)	growth inhibition call (S. aureus RN4220)
C[C@@H]1CN([C@@H](C)CO)C(=O)Cc2cc(NS(=O)(=O)c3ccc(Cl)cc3)ccc2O[C@@H]1CN(C)S(C)(=O)=O	inactive	inactive	inactive
C[C@@H]1CN([C@H](C)CO)C(=O)c2cc(NC(=O)CCN3CCOCC3)ccc2O[C@@H]1CN(C)C(=O)Nc1ccccc1	inactive	inactive	inactive
COc1cccc(S(=O)(=O)Nc2ccc3c(c2)OC[C@H](C)N(C(=O)Cc2cccnc2)C[C@H](C)[C@H](OC)CN(C)C3=O)c1	inactive	inactive	inactive
C[C@@H]1CCCCO[C@H](CN(C)S(=O)(=O)c2cccs2)[C@H](C)CN([C@@H](C)CO)C(=O)c2cc(NC(=O)NC3CCCCC3)ccc2O1	inactive	inactive	inactive
C[C@@H]1CCCCO[C@@H](CN(C)C(=O)CCC(F)(F)F)[C@H](C)CN([C@@H](C)CO)C(=O)c2cc(NC(=O)C3CCCCC3)ccc2O1	inactive	inactive	inactive
CO[C@H]1CN(C)C(=O)c2cc(NC(=O)c3ccc(F)cc3)ccc2OC[C@H](C)N(C(=O)CN(C)C)C[C@H]1C	inactive	inactive	inactive
CCC[C@H](NC(=O)[C@@H]1[C@H]2CCC[C@H]2CN1C(=O)[C@@H](NC(=O)[C@@H](NC(=O)c1cnccn1)C1CCCCC1)C(C)(C)C)C(=O)C(=O)NC1CC1	inactive	active	inactive
C[C@@H]1CCCCO[C@@H](CN(C)S(C)(=O)=O)[C@@H](C)CN([C@H](C)CO)C(=O)c2cc(NS(=O)(=O)c3cn(C)cn3)ccc2O1	inactive	inactive	inactive
CC(=O)N1CCCN(S(=O)(=O)c2cn(C)c(=O)n(C)c2=O)CC1	inactive	inactive	inactive
C[C@@H]1CCCCO[C@H](CN(C)C(=O)C2CCCCC2)[C@@H](C)CN([C@H](C)CO)C(=O)c2cc(NC(=O)C3CCCCC3)ccc2O1	inactive	inactive	inactive
Cc1ccc(S(=O)(=O)N(C)C[C@@H]2Oc3ccc(NS(=O)(=O)c4ccc(F)cc4)cc3C(=O)N([C@H](C)CO)C[C@@H]2C)cc1	inactive	inactive	inactive
COc1ccc(S(=O)(=O)N(C)C[C@H]2Oc3cc(C4=CCCC4)ccc3S(=O)(=O)N([C@H](C)CO)C[C@@H]2C)cc1	inactive	inactive	inactive
COC(=O)c1ccc2c(c1)NC(=O)CO2	inactive	inactive	inactive
Cn1nnnc1S[C@H]1CCNC1	inactive	inactive	inactive
C[C@H](CO)N1C[C@H](C)[C@H](CN(C)S(C)(=O)=O)OCCCC[C@H](C)Oc2ccc(NS(=O)(=O)c3ccc(F)cc3)cc2C1=O	inactive	inactive	inactive
Cc1noc(C)c1S(=O)(=O)N(C)C[C@@H]1OCc2cnnn2CCCC(=O)N([C@@H](C)CO)C[C@@H]1C	inactive	inactive	inactive
CCN(CC)c1ccc(N2CC=C[C@@]34O[C@@H]5/C=C\CCCOC(=O)[C@@H]5[C@H]3C(=O)N(CCCCCCO)[C@@H]4C2=O)cc1	inactive	inactive	inactive
C[C@@H]1CN([C@@H](C)CO)C(=O)c2cccc(NS(=O)(=O)c3cn(C)cn3)c2O[C@@H]1CN(C)S(=O)(=O)c1ccccc1	inactive	inactive	inactive
C[C@@H]1CCCCO[C@@H](CN(C)C(=O)C2CCCCC2)[C@@H](C)CN([C@H](C)CO)C(=O)c2cc(NC(=O)NC3CCCCC3)ccc2O1	inactive	inactive	inactive
C/C=C/c1cnc2c(c1)C(=O)N([C@H](C)CO)C[C@@H](C)[C@H](CN(C)S(=O)(=O)c1ccc(OC)cc1)O2	inactive	inactive	inactive
COCc1cc(C)[nH]c(=O)c1C#N	inactive	inactive	inactive
C[C@@H]1CCCCO[C@H](CN(C)C(=O)Nc2ccc3c(c2)OCO3)[C@H](C)CN([C@@H](C)CO)C(=O)c2cc(NS(=O)(=O)c3ccccc3)ccc2O1	inactive	inactive	inactive
O=C1CCSc2ccc(F)cc21	inactive	inactive	inactive
CC(C)NC(=O)Nc1cccc2c1O[C@H](CN(C)S(=O)(=O)c1cccs1)[C@H](C)CN([C@H](C)CO)C2=O	inactive	inactive	inactive
C[C@H](CO)N1C[C@H](C)[C@H](CN(C)C(=O)Cc2ccncc2)Oc2ncc(C#CC3(O)CCCC3)cc2C1=O	inactive	inactive	inactive
